Results reported in the supplement of paper PMC11417369.
The list shows a part of the results.

The sequences below were run on PfAP2-HC AP2 domain (GST-tagged) (assay: gcPBM binding intensity (ln(normalized median fluorescence intensity)); higher = stronger DNA binding).
Summary of the method: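 Binding intensity values are the highest Masliner-normalised natural-log median intensity among replicate spots of either probe orientation. The binding step lasted 1 h in 1× PBS with 1% milk, 0.2 mg/ml BSA, 0.5% salmon testes DNA and 0.03% Triton X-100, using GST-tagged P. falciparum DNA-binding domains expressed in E. coli on an Agilent 4 × 180k array of primer-extended double-stranded 36-bp intergenic genomic probes plus negative controls. Alexa488 anti-GST antibody and a 488 nm scan detected bound protein.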

| Sequence | gcPBM binding intensity (ln) |
| --- | --- |
| AAAAAAAAAAAAAAAAAAATATATTATATATATATA [XGTACX_negctrl_site467] | 9.39 |
| TAAAAATAAAGAAAATGTACATAAATAAAAATAAAG [XGTACX_site2279] | 9.83 |
| TATATATATACATAATGTACAAGAATTTGTATTGAA [XGTACX_site627] | 9.63 |
| ACAGGAGTATAACCTCGTACAAAATATATTTACCAT [XGTACX_site5805] | 9.62 |
| CCTAGAAAAGCATATACACACGCGCAAAATAAAATT [CACACA_site4902] | 9.84 |
| TCTTTAAAAAAAAAAAAAAAAAATTCCAAATAAATA [TGCATGCA_negctrl_site538] | 8.89 |
| AAAAAGCAGGATTATACACACAAATATATATATGTT [CACACA_site1077] | 9.81 |
| TATATAAATTTAATAACACACATATAAAAATGAATT [CACACA_site2366] | 9.71 |
| ATATATATATAACATTGTACACACAAAGAAATAATA [XGTACX_site6440] | 10 |
| ATATGTTTACGTAAATGTACACGTCAGTATATTTCT [XGTACX_site8199] | 9.87 |
| AACTTGTATATATACACACACACACTATCTTTTTTT [CACACA_site8601] | 10.9 |
| TTTTATAATAAGTATGTAAAAATTATATATATATAT [CACACA_negctrl_site711] | 9.36 |
| ACACATTATAAAACTGTCGCTCATAAAGAAGAATGA [CACACA_negctrl_site999] | 9.89 |
| GCAACAAAAAATCAGACATGCATTTTAAAATGAATA [TGCATGCA_site846] | 9.69 |
| CATATTGAATATTTAACACACATTTCGCTTAATTCA [CACACA_site2086] | 9.77 |
| TATAAAAAAAAAATTTGTACATAATAATATATATAT [XGTACX_site2074] | 9.57 |
| TTATATATAAAATACTGTACATTTAATTGATGGTTT [XGTACX_site2073] | 9.62 |
| GAATGAATTGTTATTAGTACACATGTGAATTATAAA [XGTACX_site6790] | 9.71 |
| CTTTTATATGTCTAATGTACGGGCAATATAAATTTG [XGTACX_site8323] | 9.43 |
| ATATATATATATATATGTACATAATATATGTCCTAT [XGTACX_site5087] | 10.1 |
| GTAAGCATAAATATATGTACATACATATACAGATAT [XGTACX_site3361] | 9.86 |
| TAAGATAAAAAAAATGCATGTTCTTATAATATTGTC [TGCATGCA_site939] | 9.64 |

| Sequence | gcPBM binding intensity (ln) |
| --- | --- |
| ATTATATCATCTAAAACATGCACACATATGTACTCT [TGCATGCA_site949] | 10.3 |
| GTTGAGAAAATATGTGCATGTCAGGTTAAATTTTTA [TGCATGCA_site744] | 9.52 |
| GGTGATATAATATATACATGCACATATATATTATTA [TGCATGCA_site970] | 9.62 |
| TATGGAAATATATATTGTACGTATGACCTTTAAAAA [XGTACX_site3935] | 9.56 |
| TTACAAAAAAATAATTGTACATACAATTTCTGTTAT [XGTACX_site877] | 9.59 |
| TTTATATGTATGAAGTGTACACATATATTGTATTTT [XGTACX_site5731] | 9.77 |
| ATTAGTTTACACATATGTACATATATTACAACAAAA [XGTACX_site275] | 9.66 |
| TTTATAATAAAATTTTTACACACTTTAAAAAAAAAA [CACACA_site8070] | 9.37 |
| TTTTTTTCAATATTTGCACACGATTATAATATTTAA [CACACA_site2237] | 9.81 |
| AATATTCGTAATTGATGTACTTGTAATTCATACATT [XGTACX_site8314] | 9.67 |
| AATAAATATCTGTACACACACAAATAAATACATATC [CACACA_site5108] | 10.3 |
| TATAATAAAAATAATACACACATATATAGCAATCGT [CACACA_site3241] | 10.1 |
| CAGAATAATTTTATCGGTACACACTGTATGCATAAT [XGTACX_site736] | 9.72 |
| TTTATGTATTTTTATGCACACATGCGTGGCTTATAT [CACACA_site4374] | 9.93 |
| TACGGACATACTAACGGACACACGTAAGAAAAAAAA [CACACA_site602] | 9.69 |
| TATGACATATCCTGTAGTACAACGTATATATAAGAT [XGTACX_site1327] | 9.7 |
| AATAAAAATAATGAATGTACATATATATATACAATA [XGTACX_site3342] | 9.74 |
| ATATATAACGTGCACACACACATTTACGTATGAATA [CACACA_site6948] | 10 |
| ATATATAATTTTTGCTGTACACAAAATATTAATTTA [XGTACX_site2057] | 9.56 |
| TTTTATTAAAACCACGCATGCAGAGGAAACGGTGAG [TGCATGCA_site1029] | 9.78 |
| TTCTGTATAATATAAAAACAAAAATTAAATTAAAAC [CACACA_negctrl_site81] | 9.45 |
| CATAAAATATAAAACACACACACATATATATATATA [CACACA_site223] | 10.7 |
